# Assay results taken from publication PMC4336329 (PLoS ONE, 2015).
# Screen size: about 310,000 compounds; about 2,200 (0.71%) showed an effect of 50% or more. Effects have a minus sign here. The list shows a part of the results.
# Target: human ether-à-go-go-related gene (hERG) potassium channel (human, UniProt Q12809)
# Test: primary screen, population patch clamp on CHO cells stably expressing hERG
# Chain of human ether-à-go-go-related gene (hERG) potassium channel (Q12809 whole entry, looked up): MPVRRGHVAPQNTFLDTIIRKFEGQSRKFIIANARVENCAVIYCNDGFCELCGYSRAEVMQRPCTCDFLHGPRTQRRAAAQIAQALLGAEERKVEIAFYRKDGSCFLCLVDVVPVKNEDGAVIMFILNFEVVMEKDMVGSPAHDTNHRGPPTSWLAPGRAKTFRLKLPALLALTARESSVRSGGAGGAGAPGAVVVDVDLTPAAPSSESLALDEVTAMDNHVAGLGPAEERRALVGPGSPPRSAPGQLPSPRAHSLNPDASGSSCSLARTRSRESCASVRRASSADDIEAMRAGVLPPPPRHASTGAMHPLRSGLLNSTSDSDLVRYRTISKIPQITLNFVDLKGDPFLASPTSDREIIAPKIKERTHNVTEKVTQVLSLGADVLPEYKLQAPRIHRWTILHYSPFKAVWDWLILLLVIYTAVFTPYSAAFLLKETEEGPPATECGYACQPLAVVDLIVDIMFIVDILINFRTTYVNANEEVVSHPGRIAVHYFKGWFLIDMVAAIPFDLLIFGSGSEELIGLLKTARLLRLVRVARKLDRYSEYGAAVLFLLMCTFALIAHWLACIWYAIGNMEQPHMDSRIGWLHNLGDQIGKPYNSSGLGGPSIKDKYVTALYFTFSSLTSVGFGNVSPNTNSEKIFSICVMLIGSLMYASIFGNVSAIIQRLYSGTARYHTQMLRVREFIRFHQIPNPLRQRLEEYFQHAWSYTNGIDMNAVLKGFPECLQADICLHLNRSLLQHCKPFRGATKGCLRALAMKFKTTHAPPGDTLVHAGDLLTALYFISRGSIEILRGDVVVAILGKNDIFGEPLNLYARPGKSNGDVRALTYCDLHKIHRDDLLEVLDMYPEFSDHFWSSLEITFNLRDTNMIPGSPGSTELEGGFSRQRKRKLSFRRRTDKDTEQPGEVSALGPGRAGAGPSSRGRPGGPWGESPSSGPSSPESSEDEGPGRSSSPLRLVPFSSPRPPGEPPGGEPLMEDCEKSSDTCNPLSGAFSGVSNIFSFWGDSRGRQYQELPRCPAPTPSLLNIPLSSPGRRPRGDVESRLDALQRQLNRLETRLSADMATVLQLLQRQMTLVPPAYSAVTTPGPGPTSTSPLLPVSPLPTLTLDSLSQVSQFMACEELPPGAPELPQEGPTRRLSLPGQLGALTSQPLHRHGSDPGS
row,SMILES,"hERG current change (%, negative = inhibition) at 1uM [%]"
1,CCc1nnc(NC(=O)CSc2nnc(CNc3cccc(C)c3)n2-c2ccccc2)s1,3.8
2,Cc1cc([N+](=O)[O-])ccc1NC(=O)c1sc2ncn(CC(=O)N3CCOCC3)c(=O)c2c1C,10.3
3,COc1ccccc1OCCCn1c(=O)sc2ccccc21,6.23
4,CN1CCN(S(=O)(=O)c2ccc(Br)c3nsnc23)CC1,10.5
5,CCOC(=O)N1CCN(S(=O)(=O)c2ccc(C(=O)Nc3nnc(C4CC4)o3)cc2)CC1,-1.38
6,O=c1cc(Cl)[nH]c(=O)n1CCNc1ncc(C(F)(F)F)cc1Cl,-3.66
7,CN1CCc2c(sc3nc(NN)n(Cc4ccccc4)c(=O)c23)C1,10.8
8,CCCCN(C)CC(O)Cn1cc(/C=C/C(=O)c2cccs2)c2ccccc21 (centres unmarked),7.26
9,CCc1ccc(NC(=O)COC(=O)C2(c3ccc(Cl)cc3)CCCC2)cc1,11
10,COc1cccc(OC)c1CNC(=O)CCSCc1ccccc1F,7.24
11,Cc1ccc(-c2noc(CCC(=O)Nc3cc(C)ccn3)n2)cc1,9.61
12,CC(C)Cn1c(/C=C/c2ccco2)nc2ccccc21,13.6
13,O=S(=O)(Nc1cccc(-c2cn3c(n2)SCC3)c1)c1ccc(F)cc1F,6.34
14,CCOC(=O)C(C)Sc1ncnc2nc[nH]c12 (centres unmarked),2.28
15,CSc1ncccc1C(=O)N1CCN(S(=O)(=O)c2ccccc2)CC1,20.3
16,O=c1oc2cc(Oc3c([N+](=O)[O-])cc(C(F)(F)F)cc3[N+](=O)[O-])ccc2c2c1CCCC2,7.02
17,O=C(Nc1ccc2c(c1)Cc1ccccc1-2)c1ccco1,4.54
18,O=C1c2ccccc2C(=O)N1Cc1cc(-c2ccccc2)no1,11.6
19,Cc1ccc(SCCCn2cnc3ccccc3c2=O)cc1,8.47
20,Cl.OC(CNC1CCCC1)COc1ccc(-c2ccccc2)cc1 (centres unmarked),9.19
21,Cc1ccc2nc(C)cc(N/N=C/c3ccccc3O)c2c1,8.77
22,Cc1ccc(OCCNC(=O)c2ccc(C)o2)cc1,8.42

row,SMILES,"hERG current change (%, negative = inhibition) at 1uM [%]"
1,CCOC(=O)N1CCN(C(=O)c2cccc(N3C(=O)NC4CC3(C)Oc3ccccc34)c2)CC1 (centres unmarked),13
2,CC(=O)OCC[C@H](NS(=O)(=O)OCC(Cl)(Cl)Cl)c1ccccc1,11.9
3,Cc1cc(C)cc(OCC(=O)OCC(=O)c2ccc3c(c2)NC(=O)CO3)c1,12.2
4,COc1ccc(OCCNC(=O)c2cccc(Oc3ccc(C(F)(F)F)cc3[N+](=O)[O-])c2)cc1,3.75
5,CCN1CCN(c2ccc(S(=O)(=O)N3CCCCC3)cc2NC(=O)c2ccccc2)CC1,-15.6
6,CC1Cc2cc(/C=C3/SC(=S)NC3=O)ccc2O1 (centres unmarked),9.84
7,CCCN(CC(=O)Nc1ccccc1OC)C(=O)c1cc(-c2cccs2)nn1-c1ccccc1,0.953
8,COc1ccc2c(c1)c(=O)oc1cc(OCC(=O)N3CCC(C)CC3)ccc12,8.26
9,O=C(CNCc1cccs1)Nc1ccc(N2CCCCCC2)cc1.O=C(O)C(=O)O,3.38
10,CCc1cc2c(=O)[nH]c(N3CCCC3)nc2s1,7.46
11,CC(C)(C)c1ccc(COc2ccsc2C(=O)O)cc1,5.85
12,CC(C)C1OC2c3cccc4cccc(c34)C2N1c1ccccc1 (centres unmarked),18.8
13,Cc1cc(OCC(=O)NCCO)cc(C)c1Cl,8.17
14,CCOC(=O)c1cccc(Nc2ncnc3ccccc23)c1.Cl,2.2
15,N#CCOC(=O)c1cc(S(=O)(=O)N2CCCCC2)ccc1N1CCOCC1,3.02
16,COC(=O)C1=C(c2cc3ccccc3s2)C[C@@H]2CC[C@H]1N2C(=O)N1CCCC1,6
17,CCOc1cc(/C=N\NC(=O)c2ccc(C)nc2)cc([N+](=O)[O-])c1O,-3.87
18,OCC[C@@H]1C[C@@H](O)[C@H](O)[C@]2(Cc3ccccc3CCO2)O1,14.3
19,Cc1c(Cl)cccc1NC(=O)CNCc1ccccc1F.O=C(O)C(=O)O,16.5
20,Cc1cccc(C(=O)NC(=S)Nc2ccc3[nH]c(=O)[nH]c3c2)c1,10.7
21,O=C(Cc1cccs1)NCc1cccc(CNC(=O)Cc2cccs2)c1,18.4
22,O=C(CN1CCOCCOCCN(CC(=O)Nc2ccccc2)CCOCC1)Nc1ccccc1,-5.34
